From PubChem BioAssay AID686978 (National Center for Advancing Translational Sciences (NCATS), 2013)
Hit rate of the full screen: of about 420,000 compounds, about 64,000 (15%) were called active. The inconclusive results got no clear call from the source; some entries with a clear call stand among them for comparison. Calls come from the whole dose curve; as a rule, active = well fitted inhibition curve with a large enough effect; inconclusive = small, poorly fitted or top-dose-only effect; inactive = flat fitted curve, though single readings scatter. Potencies of inconclusive entries are left out as doubtful fits.

Test: qHTS for Inhibitors of human tyrosyl-DNA phosphodiesterase 1 (TDP1): qHTS in cells in absence of CPT; note: nearly all actives have a fitted effect of over 55% in size
Conditions: DT40 Tdp1-/- hTDP1 cells, no CPT, ATP luminescence, 48 h; activity change, negative = growth inhibition: at 46.2 µM (top of the series) unless noted
Procedure, shortened: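 Readout: luminescence from CellTiter-Glo after 30 min in the dark at RT. Cells: DT40 Tdp1-/- with stable hTDP1, 400/well. Exposure: compounds alone, ≥48 hr, 37 °C.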
% is set by controls: 0 for no effect and ±100 for the full control effect; potency is the fitted concentration of half-maximal effect; tags give direction and shape of the fitted curve.

SMILES | Potency | activity change, negative = growth inhibition
COc1ccc(CN2CCN(Cc3ccc4ccccc4c3)CC2)cc1OC | active: 18.4 µM | –
COc1cccc(NC(=O)C(=O)NCC2CCCN2S(=O)(=O)c2cccs2)c1 (centres undefined) | inactive | –
CCCCNc1nc2ccccc2n1CC(=O)Nc1c(C)cccc1CC | – | inconclusive: -35.6% [inhibitor]
S=c1ccss1 | inconclusive [inhibitor, single point] | –
COc1cccc(C2c3[nH]c4ccccc4c3C[C@H]3C(=O)N(c4ccccc4C(=O)N4CCC(C(=O)O)CC4)C(=O)N23)c1 (some centres undefined) | inactive | –
CCOc1ccc(CCNC(=O)COn2nnc3ccc(S(=O)(=O)N4CCOCC4)cc32)cc1OCC | inactive | –
O=C(NC1CCCCC1)C(c1ccc2ncccc2c1)N(Cc1ccccc1)C(=O)c1ccc2c(c1)OCCO2 (centres undefined) | inconclusive [inhibitor, partial curve] | –
CC(=O)Nc1cc[n+](CC(=O)c2ccc(Cl)cc2)cc1 | inactive | –
CSc1nc2c(c(=O)[nH]1)C(c1ccc(F)cc1)CC(=O)N2 (centres undefined) | inactive | –
Cc1ccc(Nc2nc(N)nc(COC(=O)c3ccc(Br)o3)n2)cc1 | inconclusive [inhibitor, single point] | –
COc1cc(OC)nc(Oc2ccccc2C=O)n1 | inconclusive [inhibitor, single point] | –
O=C(CCCN1C(=O)c2ccccc2C1=O)NCc1ccc(F)cc1 | inactive | –
Nc1nc(COC(=O)c2ccc3c(c2)OCCO3)nc(Nc2ccccc2)n1 | – | inconclusive: -34.5% [inhibitor]
O=C(COc1ccccc1/C=C1\SC(=S)NC1=O)Nc1ccc(F)cc1 | active: 10.3 µM | –
COc1ccc(-c2nc3ccc(Br)cn3c2Cc2ccc(C)cc2)cc1OC | inconclusive [inhibitor, single point] | –
O=C(CSc1nc2ncccc2[nH]1)Nc1cc(F)ccc1F | inconclusive [inhibitor, single point] | –
O=C(CN1CCC(O)(c2ccccc2F)CC1)NCCc1c[nH]c2ccccc12 | inactive | –
COc1cccc(-c2nnc(NC(=O)C3CCCCC3)o2)c1 | inconclusive [inhibitor, single point] | –
O=c1[nH]c(CN(CCO)CCO)nc2c1C1(CCCCC1)Cc1ccccc1-2 | inactive | –
Cc1cccc(NS(=O)(=O)c2ccc(C)c(C(=O)N3CCN(C(=O)c4ccco4)CC3)c2)c1 | inconclusive [inhibitor, single point] | –
O=C(c1cc(C2CC2)nn1-c1ccccc1)N1CCN(S(=O)(=O)c2ccccc2)CC1 | active: 16.4 µM | –
CC1=C(C#N)C(C)C2=C(CC(C)(C)CC2=O)N1 (centres undefined) | inconclusive [inhibitor, single point] | –
CC(C)(C)C1CCC(=O)N(CCOc2ccccc2)CC1 (centres undefined) | inconclusive [inhibitor, single point] | –
CCOc1ccc(C(=O)c2cn(CC(=O)Nc3ccc4c(c3)OCO4)c3ccc(OC)cc3c2=O)cc1 | inconclusive [inhibitor, single point] | –
COc1cccc(C=Nc2cc(C)cc(C)c2)c1O | inactive | –

SMILES | Potency | activity change, negative = growth inhibition
C=CCc1cccc(/C=N/NC(=O)C(C)Nc2cccc(C)c2)c1O (centres undefined) | active: 2.91 µM | –
OC1CCCN(Cc2ccc3ccc4cccc5ccc2c3c45)C1 (centres undefined) | active: 20.6 µM | –
CC(=O)Nc1ccc2c(c1)Cc1cc(N3C(=O)C=CC3=O)ccc1-2 | active: 1.3 µM | –
CCN(CC)C(=O)[C@H]1CC(CC(=O)NCCCN(C)C)C(=O)N2CCc3c([nH]c4ccccc34)[C@]12C (some centres undefined) | inactive | –
Cc1ccc(CNC(=O)CCc2c(C)nn(-c3ccc(N4CCOCC4)nn3)c2C)cc1 | inconclusive [inhibitor, full curve, poor fit] | –
COc1cccc(N2CCN(C(=O)C3CCCN(S(=O)(=O)c4cccc5nsnc45)C3)CC2)c1 (centres undefined) | active: 9.2 µM | –
COc1ccc(CNC(=O)CCc2nc(-c3ccccc3F)no2)c(OC)c1 | inconclusive [inhibitor, single point] | –
O=C(O)c1ccc(Cl)c(S(=O)(=O)NCc2cccnc2)c1 | – | inconclusive: -26.1% [inhibitor]
COc1ccc(CN(C)CCCn2cnc3c(SC)ncnc32)cc1OC | inactive | –
COc1cc(C(=O)OCC(=O)Nc2ccc(SC(F)F)cc2)cc(OC)c1OC | inconclusive [inhibitor, single point] | –
CC(C)CN1CCN(Cc2cn(C)c3ccccc23)CC1CCO (centres undefined) | inconclusive [inhibitor, single point] | –
O=C1N(Cc2cccc(Cl)c2)C[C@@H]2C[C@@H](c3ccco3)N3CCC[C@@]123 | inactive | –
O=C(Nc1nnc(C2CCCCC2)s1)c1cccs1 | – | inconclusive: -30.3% [inhibitor]
O=C(Nc1cccc(Cl)c1)C1CCCN(c2nn3cc(-c4ccc(F)cc4)nc3s2)C1 (centres undefined) | active: 23.1 µM | –
CCCc1nc2ccccc2c(=O)n1-c1c(C)n(C)n(-c2ccccc2)c1=O | active: 18.4 µM | –
CCOC(=O)c1ccc2c(c1)nc(SCC(=O)c1cc3ccccc3o1)n2CC | inconclusive [inhibitor, single point] | –
C=CC(=O)Nc1cccc(N(C)c2ccnc(Nc3ccc(N4CCN(C)CC4)cc3)n2)c1 | active: 5.17 µM | –
CC(C)(C)C(=O)COc1ccccc1[N+](=O)[O-] | inconclusive [inhibitor, single point] | –
COc1ccc(OC)c(NC(=O)Cn2c(=O)c3cccn3c3ccccc32)c1 | active: 11.6 µM | –
Cc1ccc(S(=O)(=O)CC(=O)N2CCN(c3ccc(F)cc3)CC2)cc1 | inactive | –
C#Cc1ccc([C@H]2C=C(C(=O)NC3CC3)O[C@@H](OCC)[C@@H]2CCCO)cc1 | active: 23.1 µM | –
COc1ccc2cc3c(N)nn(C(=O)c4cccc(F)c4)c3nc2c1 | inconclusive [inhibitor, full curve] | –
CSc1nc2ccccc2c(=O)n1C1CCOC(C)(C)C1 (centres undefined) | inactive | –
CCc1ccc2c(c1)C(c1ccc([N+](=O)[O-])cc1)=NNC(c1ccc(F)cc1)=N2 | inconclusive [inhibitor, single point] | –
